Experimental data from PubChem BioAssay AID588342 (National Center for Advancing Translational Sciences (NCATS), 2011).
The campaign covered roughly 360,000 compounds. About 25,000 (6.9%) were called active. The inconclusive results got no clear call from the source; some entries with a clear call stand among them for comparison. Calls follow the shape of the dose curve; as a rule, active = well fitted inhibition curve with a large enough effect; inconclusive = small, poorly fitted or top-dose-only effect; inactive = flat fitted curve, though single readings scatter. Where the call is inconclusive, the potency comes from a doubtful curve fit.

target: Luciferin 4-monooxygenase (Photinus pyralis) (UniProt P08659); experiment: qHTS profiling assay for firefly luciferase inhibitor/activator using purifed enzyme and Km concentrations of substrates (counterscreen for miR-21 project); conditions: purified FLuc, luminescence inhibition; series mostly up to 57.5 µM; also: nearly all actives have a fitted effect of over 55% in size
Sequence of UniProt P08659 (P08659 whole entry, looked up): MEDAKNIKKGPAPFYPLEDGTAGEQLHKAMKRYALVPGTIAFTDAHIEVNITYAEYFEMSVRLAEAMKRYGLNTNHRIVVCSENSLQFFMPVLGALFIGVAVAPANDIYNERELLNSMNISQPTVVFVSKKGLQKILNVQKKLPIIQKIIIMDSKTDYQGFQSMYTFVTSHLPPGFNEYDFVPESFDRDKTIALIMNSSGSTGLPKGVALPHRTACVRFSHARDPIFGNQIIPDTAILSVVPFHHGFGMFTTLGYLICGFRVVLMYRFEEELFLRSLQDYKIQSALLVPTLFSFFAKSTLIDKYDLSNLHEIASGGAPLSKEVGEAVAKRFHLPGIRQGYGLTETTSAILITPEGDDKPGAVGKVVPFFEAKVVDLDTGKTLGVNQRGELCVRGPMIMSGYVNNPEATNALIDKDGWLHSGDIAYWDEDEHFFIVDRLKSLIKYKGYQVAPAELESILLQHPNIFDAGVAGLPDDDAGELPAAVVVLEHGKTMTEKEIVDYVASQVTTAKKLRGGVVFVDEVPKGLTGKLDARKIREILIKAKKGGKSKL
Method in brief: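 Purified P. pyralis luciferase (10nM final) with 10uM D-luciferin and 10uM ATP (Km levels) in 50mM Tris acetate pH 7.5, 10mM Mg acetate, 0.01% Tween-20, 0.05% BSA; qHTS 6-point titration, ~60 µM downward; luminescence read.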
Potency is read from the fitted curve at half-maximal effect; tags tell the direction and shape of the fitted curve.

| SMILES | Potency |
| --- | --- |
| O=C(CSc1nnc(SCc2ccccc2)s1)NNC(=S)Nc1ccccc1 | inconclusive: 26.9 µM [inhibitor, single point] |
| CC1CCCCN1S(=O)(=O)c1ccc(C(=O)Nc2nnc(-c3ccncc3)o2)cc1 (stereo not drawn) | inconclusive: 26.9 µM [inhibitor, partial curve, poor fit] |
| S=C(Nc1ccc(Oc2ccccc2)cc1)NC1CCCC1 | inconclusive: 26.9 µM [inhibitor, single point] |
| O=C(CS(=O)(=O)c1ccccc1)Nc1nc(-c2ccc(F)cc2)cs1 | inconclusive: 37.9 µM [inhibitor, partial curve, poor fit] |
| NNC(=O)c1cc2cc3ccccc3nc2s1 | active: 21.3 µM |
| CN1CCN(/N=C/c2ccc(-c3ccc([N+](=O)[O-])cc3Cl)o2)CC1 | inconclusive: 26.9 µM [inhibitor, single point] |
| COc1cc(/C(C)=N/Nc2ccc(C(=O)O)cc2)cc(OC)c1OC | inconclusive: 16.9 µM [inhibitor, partial curve] |
| CCOC(=O)c1cccc(NC(=O)c2ccco2)c1 | inconclusive: 26.9 µM [inhibitor, single point] |
| CC(C)c1ccc(NC(=O)CN2C(=O)COc3ccc(S(=O)(=O)N4CCCCC4)cc32)cc1 | inconclusive: 23.9 µM [inhibitor, partial curve, poor fit] |
| Cn1cccc1-c1nc2ccc(NC(=O)c3cccs3)cc2[nH]1 | inconclusive: 26.9 µM [inhibitor, partial curve, poor fit] |
| CCCC(=O)C1=C(c2ccccc2)C(C#N)(C#N)C(C#N)=C1N | inconclusive: 10.7 µM [inhibitor, partial curve, poor fit] |
| CCc1c(C(=O)Nc2ccccc2)c(C)[nH]c(=S)c1C#N | inactive |
| CCCC(=O)NC(c1ccc(OC)c(OC)c1)c1cc(Cl)c2cccnc2c1O (stereo not drawn) | inconclusive: 26.9 µM [inhibitor, partial curve, poor fit] |
| Cc1cc(NC(=O)c2ccco2)c(=O)n(Cc2cccc(C(F)(F)F)c2)c1 | inconclusive: 37.9 µM [inhibitor, partial curve, poor fit] |
| COc1ccc(S(=O)(=O)c2cn(CC(=O)Nc3cc(C)ccc3C)c3ccccc3c2=O)cc1 | inactive |
| CCOc1ccc(Nc2oc(-c3ccco3)nc2C#N)cc1 | inconclusive: 12 µM [inhibitor, partial curve, poor fit] |
| Cc1ccc(C(=O)NN2C(=O)CSC2=S)cc1 | inconclusive: 6.01 µM [inhibitor, partial curve, poor fit] |
| O=C(NC(=S)NCCC1=CCCCC1)c1cccnc1 | inactive |
| Cc1csc(NC(=O)CCCSc2nc3ccccc3s2)n1 | inconclusive: 21.3 µM [inhibitor, partial curve, poor fit] |
| Cc1ccccc1/C=N/Nc1ccnc2cc(Cl)ccc12 | inconclusive: 1.9 µM [inhibitor, partial curve, poor fit] |
| Brc1cc2[nH]cnc2c2ccccc12 | inconclusive: 30.1 µM [inhibitor, partial curve, poor fit] |

| SMILES | Potency |
| --- | --- |
| C=CCNC(=O)c1cc(-c2ccc3c(c2)OCO3)on1 | active: 2.13 µM |
| Cc1ccccc1OCC(=O)Nc1ccc2c(c1)C(=O)N(CCC(=O)O)C2=O | inconclusive: 37.9 µM [inhibitor, partial curve, poor fit] |
| COc1cccc(-n2cc(C(=O)NCCc3ccc(C)cc3)c3ccccc3c2=O)c1 | inconclusive: 13.5 µM [inhibitor, partial curve] |
| O=C(Nc1nc2ccc(S(=O)(=O)N3CCCC3)cc2s1)c1ccccn1 | inconclusive: 16.9 µM [inhibitor, partial curve] |
| O=C1Nc2ccccc2/C1=C/c1cnc(-c2ccccc2)[nH]1 | inconclusive: 1.9 µM [inhibitor, full curve] |
| Cc1[nH]c2ccccc2c1C(=O)CSC(=S)N(C)C1CCCCC1 | active: 15.1 µM |
| O=[N+]([O-])c1ccccc1CSc1nnc2ccccn12 | inconclusive: 21.3 µM [inhibitor, partial curve, poor fit] |
| Cc1c(C)c2c(cc(C)c3c(-c4ccccc4)coc32)oc1=O | inconclusive: 19 µM [inhibitor, partial curve, poor fit] |
| CCOC(=O)c1sc(NC(=O)c2cc(-c3ccccc3)nc3ccccc23)c(C#N)c1C | inconclusive: 21.3 µM [inhibitor, single point] |
| COc1ccccc1-n1ncc2c(=O)[nH]c(SCC(=O)Nc3ccc(Cl)cc3)nc21 | inconclusive: 10.7 µM [inhibitor, partial curve] |
| O=C1C=C(O)c2c(O)cccc2C1=O | inactive |
| CC(C)Oc1ccc(C(CC(=O)O)NC(=O)c2cccs2)cc1 (stereo not drawn) | inactive |
| CCOC(=O)CCNC(=O)CCc1nnc(CCCc2ccccc2)o1 | inconclusive: 26.9 µM [inhibitor, partial curve, poor fit] |
| CN(C)CCN(Cc1ccccc1)S(=O)(=O)c1ccc2[nH]c(=O)ccc2c1 | inactive |
| O=C(NNC(=O)C1CC=CCC1)c1ccccc1O (stereo not drawn) | inconclusive: 33.8 µM [inhibitor, partial curve, poor fit] |
| Cc1nnc(NC(=O)CSCc2cc(=O)c3cc(Cl)ccc3[nH]2)s1 | inactive |
| c1ccc(N=Nc2cn[nH]c2-c2ccco2)cc1 | inconclusive: 37.9 µM [inhibitor, partial curve, poor fit] |
| c1cnc2c(OCc3cn4cccnc4n3)cccc2c1 | inconclusive: 37.9 µM [inhibitor, partial curve, poor fit] |
| COc1ccccc1CNC(=S)NCCc1ccccc1 | inconclusive: 37.9 µM [inhibitor, partial curve, poor fit] |
| O=C(Cn1cnc2ccccc2c1=O)c1ccc(Cl)cc1 | inconclusive: 37.9 µM [inhibitor, single point] |
| Cn1c(O)c(/C=C2\C=Nc3ccccc32)sc1=Nc1ccc(C(=O)O)cc1 | inconclusive: 23.9 µM [inhibitor, single point] |

| SMILES | Potency |
| --- | --- |
| CC1CCCCN1Cc1c(O)ccc2c(=O)c(-c3nc4ccccc4s3)coc12 (stereo not drawn) | active: 21.3 µM |
| CCOC(=O)/C(=C\c1cccnc1)C(=O)c1cc(C(C)=O)c(Nc2ccccc2)s1 | inconclusive: 23.9 µM [inhibitor, partial curve, poor fit] |
| N/C(=N\OC(=O)Oc1ccccc1)c1ccc(Br)cc1 | inconclusive: 26.9 µM [inhibitor, partial curve, poor fit] |
| COCC(=O)N1CCC(n2nccc2NC(=O)CCOc2ccccc2)CC1 | inconclusive: 37.9 µM [inhibitor, partial curve, poor fit] |
| CC(NC(=O)c1c(Cl)cnn1C)C1CCCO1 (stereo not drawn) | inactive |
| O=[N+]([O-])c1ccc2nc(-c3ccccc3)oc2c1 | active: 9.53 µM |
| Cc1cccc(NC(=O)CN2C(=O)S/C(=C\c3ccc(O)c([N+](=O)[O-])c3)C2=O)c1 | inconclusive: 23.9 µM [inhibitor, partial curve, poor fit] |
| Cc1ccc(C(=O)C(NC(=O)c2ccco2)Nc2sc3c(c2C(N)=O)CCCC3)cc1 (stereo not drawn) | inconclusive: 23.9 µM [inhibitor, partial curve, poor fit] |
| COc1cc(C#N)ccc1OCC(=O)N1CCc2ccccc2C1 | inactive |
| CCN(CC)CC(C)CNC(=O)c1cc(-c2ccc(Br)s2)nc2ccccc12 (stereo not drawn) | inactive |
| CC(=O)C1=C(O)C(=O)N(c2ccc(S(=O)(=O)Nc3nccs3)cc2)C1c1ccc([N+](=O)[O-])cc1 (stereo not drawn) | inconclusive: 15.1 µM [inhibitor, partial curve, poor fit] |
| O=C(CSc1nnc2ccccn12)c1ccc(Cl)cc1 | inconclusive: 30.1 µM [inhibitor, partial curve, poor fit] |
| O=c1/c(=C/c2ccc(O)cc2)sc2nc3cc(Br)cnc3n12 | inconclusive: 23.9 µM [inhibitor, partial curve, poor fit] |
| CCCCNC(=O)c1nn(-c2ccc(CC)cc2)nc1CO | inconclusive: 8.49 µM [inhibitor, partial curve, poor fit] |
| COC(=O)C1=C(C)N(Cc2ccco2)C(=O)N[C@H]1c1ccccc1 | inactive |
| CC12CN3CCN(CC(C3)/C1=N\NC(=O)c1ccccc1N)C2 | inconclusive: 15.1 µM [inhibitor, partial curve] |
| C#CCOCCOCCOCCNc1nc(N2CCN(C(=O)CCCCCCCCCCNC(=O)[C@H]([C@@H](C)CC)n3cc(CCCCN=C(N)N)nn3)CC2)nc(N2CCN(C(=O)CCCCCCCCCCNC(=O)[C@H]([C@@H](C)CC)n3cc(CCCCN=C(N)N)nn3)CC2)n1 | inconclusive: 23.9 µM [inhibitor, single point] |
| O=C(C1=C[C@@H]2[C@H]3C(=O)N(c4ccccc4Cl)C(=O)[C@H]3[C@@H](C(=O)c3ccc(Cl)cc3)N2C=C1)c1ccccc1 | inconclusive: 37.9 µM [inhibitor, partial curve, poor fit] |
| COc1ccc(COC(=O)NC(C(=O)O)c2ccccc2)cc1 (stereo not drawn) | inconclusive: 26.9 µM [inhibitor, partial curve] |
| CN(c1ccc(O)cc1)c1nc(-c2ccccc2)cs1 | inconclusive: 1.69 µM [inhibitor, full curve, poor fit] |
| CCc1nc2c(oc3ccccc32)c(=O)[nH]1 | inconclusive: 21.3 µM [inhibitor, partial curve, poor fit] |
